# Test results: paper PMC5836133
# The other results are listed elsewhere or left out. At the low end of the ranking the order means little.
# Tested on: T1, GST-NbGlk1(82-244)
# T1 sequence: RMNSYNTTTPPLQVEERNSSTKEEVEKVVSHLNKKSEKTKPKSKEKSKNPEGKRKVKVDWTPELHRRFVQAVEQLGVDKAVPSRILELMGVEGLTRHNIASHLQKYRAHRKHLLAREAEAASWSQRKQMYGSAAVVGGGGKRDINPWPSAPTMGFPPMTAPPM
# Test: protein-binding microarray;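 further: rank-based score ranging −0.5 to +0.5 with E above 0.45 taken as significant binding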
# Settings: NbGlk1 is a Golden2-like transcription factor of Nicotiana benthamiana; high values mean tight binding; most listed sequences are background and not binding sites; double strand, one strand shown
row,Sequence,binding signal [E-score]
1,AGACTAAT,-0.0968
2,AAGATCGC,0.398
3,AGGCGCGA,0.0558
4,ATTGGACG,-0.111
5,AACCGCGC,0.0954
6,ATCCCCAG,0.193
7,AATTCGCT,0.142
8,AGAACACA,-0.133
9,ACCGGAGC,-0.185
10,ACTTTATA,0.0901
11,AAAAGTTC,-0.1
12,ACTCTCCC,-0.196
13,AACTAATT,0.117
14,ACCCAGTA,-0.111
15,CAGCGTGA,-0.111
16,ACAGCACT,-0.0686
17,CAAGCGCA,-0.0624
18,ATTATTGG,0.111
19,AAGACCTT,-0.167
20,ATCGTCGC,0.147
21,ATCAGAGG,-0.0212
22,AGCCGCAA,-0.0939
23,AGTCGTTG,-0.13
24,AATCACCT,0.176
25,AGTTAAGG,-0.171

row,Sequence,binding signal [E-score]
1,AATGTTCA,-0.0383
2,CAAGACAA,-0.0408
3,CACAGGTG,-0.304
4,ACTCCAAG,-0.148
5,AACAAACT,-0.0988
6,AAACGATA,0.137
7,AAAAGTGG,0.0621
8,CACCACTA,-0.0816
9,ACGAGTGA,0.0649
10,AGATAGCG,0.251
11,AGTCCCTC,-0.217
12,AACCCAGC,-0.225
13,ATCAGCTC,-0.00425
14,AAAGCTTG,0.0567
15,AATTCAGG,0.109
16,CAAGGGTC,-0.165
17,AGCTTATG,-0.167
18,AGTGAGGC,-0.187
19,AGCTTACG,-0.193
20,CAATACCC,-0.0229
21,ACGCTAAA,0.0618
22,AGATCCTG,0.369
23,AAGACAGA,0.0232
24,ACTCCTAT,-0.0522
25,CAATCGTG,0.208

row,Sequence,binding signal [E-score]
1,ACCGACGC,-0.233
2,ATAGACGG,-0.0538
3,CAGAAACG,-0.057
4,AAACTGCC,-0.157
5,AACGCGCG,0.0157
6,ACCAAGCA,-0.00329
7,AAGTCCCT,-0.212
8,AAAAACAC,-0.0464
9,AAAGCTAC,-0.175
10,ATACGAGG,-0.0346
11,ACGTTGCT,-0.0958
12,AGCGCTGC,-0.15
13,AAGCCTTG,-0.226
14,ATATTGTC,0.261
15,ACCAACCA,-0.177
16,ATGGAAAT,0.335
17,CACAAGAA,-0.000272
18,AATGAATC,0.262
19,AGTGGTAT,0.109
20,AGGGGCAC,-0.239
21,AGTGATCA,-0.0302
22,AGGAAGTC,-0.315
23,AAGCGTCG,-0.121
24,ACGATTGG,0.0657
25,ATTGATCA,-0.0208

row,Sequence,binding signal [E-score]
1,ACCCTCCC,-0.167
2,AGAGTACG,-0.15
3,AGCAAGAG,-0.078
4,AGTAAATA,0.161
5,ACCGCTAC,-0.258
6,AATATGAA,0.279
7,AAGCTGCC,-0.268
8,ATATGGCA,0.176
9,ACGGGAAG,-0.211
10,CAGACGGG,-0.188
11,CACCTAAC,-0.0187
12,ACAGCCGC,-0.291
13,ACGTATGC,-0.14
14,ACGAGCAA,-0.0637
15,AAGAATTC,0.183
16,AATGCGGA,-0.049
17,AACTCCAG,-0.181
18,ATAGTTTC,0.0303
19,CACGTCTC,-0.233
20,AATTCTGA,0.167
21,AGGACGAA,-0.178
22,CACAACCA,-0.0443
23,AGCGACTA,-0.125
24,AATTAGGT,0.00171
25,AACACGGA,0.0655

row,Sequence,binding signal [E-score]
1,CAGCATTC,-0.195
2,AAGCGTAC,-0.193
3,AATAACCG,0.0784
4,AATAGTGT,-0.0793
5,ACTCTAGG,-0.124
6,AGCAAACT,-0.0756
7,CACATGCC,-0.136
8,CAGCGATG,-0.144
9,AGGGCGTC,-0.3
10,ATGTTTTG,-0.00544
11,AACTTGTC,-0.169
12,ACCGCGGT,-0.211
13,AAGCTACA,-0.0722
14,ATTCTGCC,0.175
15,ATCTCGAC,0.34
16,AACCCGCC,-0.0801
17,AGCCTGTC,-0.182
18,ACCATCAG,-0.128
19,AAGTAGAA,0.0239
20,AGTCGAGG,-0.284
21,AGGAGCAA,-0.155
22,AGCAAGCT,-0.296
23,ATAACACA,0.128
24,AGCAGAAC,0.0215
25,AAGGATAG,-0.0238

row,Sequence,binding signal [E-score]
1,AGCCGGGG,-0.218
2,CAGCACGG,-0.128
3,ATCGGGTG,-0.0118
4,AAATAATT,0.159
5,ATAGGTGG,-0.154
6,CAAGTTGA,-0.0184
7,ATAATGAA,0.101
8,ACACCTTG,-0.167
9,AAACCTGC,-0.17
10,AGTGCATA,-0.0501
11,ACGACTTC,-0.126
12,AGGCTAAC,-0.088
13,AATAGCGT,0.00745
14,AGGTCCCG,-0.313
15,AGTTTTCC,0.0285
16,AAAAGTAA,0.0249
17,ACAAATTA,0.168
18,CAAAAATC,0.399
19,AATCTACT,0.406
20,CAATGTAA,0.159
21,AACGGCGT,-0.134
22,ATGACGCA,-0.0979
23,ACAAACGC,-0.0382
24,CAGCCTCA,-0.105
25,ATCTTGTA,0.28

row,Sequence,binding signal [E-score]
1,ACGACGTC,-0.0743
2,ATGTATAG,-0.0116
3,ACTTCATG,-0.201
4,ATATTATG,0.166
5,AATACTGA,0.171
6,ACCATAAC,0.00142
7,ACCATCTG,-0.0603
8,ACTACCGC,-0.169
9,ATCACCCA,0.0598
10,AACGGTGG,-0.064
11,ACCGAGAG,-0.0769
12,AGGGCGTA,-0.0544
13,ACATTACG,0.0909
14,AACCCAAC,-0.0483
15,AACGGGTC,-0.414
16,ACCATGTC,-0.247
17,ATAGTAAT,0.315
18,AAAGCCTG,-0.0597
19,AAATCATC,0.235
20,ACGGGGAA,0.0143
21,AGTTACCG,-0.0511
22,AAAGCCGA,0.0603
